{
  "source": "patent US10988516B2",
  "about": "“Methods and compositions for treating inflammation” (UTI Limited Partnership, priority 2012, dated 2021)",
  "system": "8.3-CD8+ T-cells",
  "details": "8.3-CD8+ T-cells after 28 days culture with peptide",
  "protocol": "A and B, Phenotype of 8.3-CD8+ T-cells 28 days after culture in the presence of peptide-pulsed (10 or 0.001 ug/ml) DCs. […] C, Intracellular IFNγ content in response to peptide challenge. […] D, Secretion of IFNγ by, and proliferation of memory-like 8.3-CD8+ T-cells (induced by BacIYL) in response to peptide challenge.\nBecause low-avidity autoreactive T-cells tend to differentiate into memory-like anergic (non-proliferating, but cytokine-secreting) autoregulatory (autoimmune disease-suppressing) T-cells in response to chronic autoantigenic stimulation, it was contemplated that Bac-IYL might be able to induce memory-like 8.3-CD8+ T-cells in vitro.",
  "data": [
    {"sequence": "IYLKTNVYL (listed as Bacteroides sp.) [BacIYL]", "values": [
      {"measurement": "IFNg production in response to agonist (IGRP206-214)-pulsed DCs", "result": "rapidly produced IFNg"},
      {"measurement": "proliferation in response to peptide challenge", "setting": "compared to naive 8.3-CD8+ T-cells", "result": "proliferative unresponsiveness (anergy)"}
    ]}
  ]
}
